# Experimental data as given in the supplement of paper PMC12217912.
# The list shows a part of the results. Sequences were assembled here from the parent chain. Values near 0.05 are background.
# B1: TEV protease; numbered along this chain (parent)
# chain: MGESLFKGPRDYNPISSSICHLTNESDGHTTSLYGIGFGPFIITNKHLFRRNNGTLVVQSLHGVFKVKDTTTLQQHLVDGRDMIIIRMPKDFPPFPQKLKFREPQREERICLVTTNFQTKSMSSMVSDTSCTFPSGDGIFWKHWIQTKDGQCGSPLVSTRDGFIVGIHSASNFTNTNNYFTSVPKNFMELLTNQEAQQWVSGWRLNADSVLWGGHKVFMVKPEEPFQPVKEATQL
# Variants of: B1
# Experiment: raw area under fraction-flipped curve 0-4 h after induction (AUC4h, not background-subtracted), DNA-recorder readout of cleavage of the substrate (dimensionless); higher = more cleavage of the substrate by the protease variant
# Conditions: temperature: 34 °C; time window: 0-4 h after rhamnose induction
# Procedure: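 In vivo DNA recorder in E. coli TOP10(DE3) ΔrhaA at 34 °C. Each TEVp single-site mutant (parent TEVp 0) is paired with a single-site variant of the 7-mer TEVs (canonical ENLYFQ|S). The substrate sits between flexible linkers in a Bxb1-sfGFP-TEVs-SsrA fusion, so cleavage stabilises Bxb1 and speeds flipping of a recombination array, read by NGS. The value is the raw area under the fraction-flipped curve over 0-4 h after rhamnose induction (AUC4h), with ≥20 reads per time point. It is not background-subtracted; inactive controls average about 0.047.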
# 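Also: Bxb1 expression induced with 0.2% (w/v) L-rhamnose at OD600 near 0.5, cultures sampled hourly, flipped fraction per protease–substrate barcode pair counted by paired-end Illumina sequencing.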
Variant,area with substrate ENLYFAS,area with substrate ENLYFFS,area with substrate ENLYFIS,area with substrate ENLYFMS,area with substrate ENLYFNS,area with substrate ENLYFPS,area with substrate ENLYFRS,area with substrate ENLYFSS,area with substrate ENLYFTS,area with substrate ENLYFWS,area with substrate ENLYFDS,area with substrate ENLYFES,area with substrate ENLYFGS,area with substrate ENLYFKS,area with substrate ENLYFYS,area with substrate ENLYFCS,area with substrate ENLYFVS,area with substrate ENLYFLS,area with substrate ENLYFHS
S171R,0.0652,0.0704,0.0544,0.065,0.0679,0.0656,0.054,0.0514,0.0521,0.0419,,,,,,,,,
S171N,0.0646,0.0832,0.0595,,,0.0592,0.0623,,,,0.0627,0.0611,0.063,0.0619,0.0615,,,,
S158K,0.0612,0.0453,0.0612,0.0593,0.0573,0.0296,0.0286,,0.0419,0.0712,,0.0545,0.0545,0.0426,0.0453,0.0437,0.0296,,
W212H,0.0349,,0.0553,0.0668,0.0454,0.0612,0.0515,0.0677,,0.0624,,,0.0557,,0.0349,,0.0589,0.0467,
W212T,0.068,0.0619,0.0579,0.0314,,0.0683,,0.0711,0.0561,,,0.0718,0.0603,,0.0581,0.0664,0.0438,0.0576,
W212I,0.0457,0.0793,0.06,0.0787,,0.0662,0.0851,,0.0665,0.0432,,0.0896,,0.0673,0.0568,0.0879,,,
T181W,0.0644,0.0704,0.0584,0.0303,0.006,,,,0.0519,,,,,0.0717,,0.06,0.0517,,0.0525
Q194D,0.0553,0.0609,0.0539,0.0635,0.0607,0.062,0.0646,0.0565,0.0625,0.055,0.0718,0.0768,,0.0525,0.0538,0.0622,0.0574,0.077,0.0706
E195I,0.0801,0.053,0.0469,0.069,0.0629,0.0641,0.0481,0.0451,0.0689,,,,,,,,,,
F187S,0.0445,0.0632,0.0503,0.0544,0.059,0.0597,0.0376,0.0533,0.0584,,,0.0556,,0.0595,0.0788,0.0592,0.0555,,
Y179H,0.0562,0.0613,0.0591,0.0667,0.0657,0.0616,0.0353,0.0445,0.0709,0.0397,0.0726,0.0586,0.061,,0.0547,0.0555,,,
Y179G,0.0529,0.0625,0.0241,,0.0454,0.0357,0.058,,,,0.0405,0.0499,,,,,,,
Q197L,0.0576,0.0718,0.0536,0.0651,0.0416,0.0706,0.0607,,0.0678,,,0.0531,,0.0358,0.073,,,,0.0644
Q197H,0.0565,,0.0494,0.0521,0.0616,0.0622,0.0678,,,0.0744,,0.0753,0.0648,0.0581,,0.0553,0.0479,,0.068
